Measurements: publication PMC10632493
These are yes or no findings as the source states them, for the method shown. Binding seen in cells or lysates may run through a third protein. Some results given as binding are weak or reduced against the parent protein; the word gives no strength. For some assays here: Sequences can lack the tags named with a protein.

By UniProt entry, the sequences of proteins in these tests, tags left out. Where a name states a change or a piece, a line headed by the entry shows the natural chain unless it says otherwise. Chains listed by the source or under a name are the forms on record and can include a tag or linker.
Flag-tagged TRIP12 (pcDNA3.1-Flag-TRIP12-WT) (Q14669, form named): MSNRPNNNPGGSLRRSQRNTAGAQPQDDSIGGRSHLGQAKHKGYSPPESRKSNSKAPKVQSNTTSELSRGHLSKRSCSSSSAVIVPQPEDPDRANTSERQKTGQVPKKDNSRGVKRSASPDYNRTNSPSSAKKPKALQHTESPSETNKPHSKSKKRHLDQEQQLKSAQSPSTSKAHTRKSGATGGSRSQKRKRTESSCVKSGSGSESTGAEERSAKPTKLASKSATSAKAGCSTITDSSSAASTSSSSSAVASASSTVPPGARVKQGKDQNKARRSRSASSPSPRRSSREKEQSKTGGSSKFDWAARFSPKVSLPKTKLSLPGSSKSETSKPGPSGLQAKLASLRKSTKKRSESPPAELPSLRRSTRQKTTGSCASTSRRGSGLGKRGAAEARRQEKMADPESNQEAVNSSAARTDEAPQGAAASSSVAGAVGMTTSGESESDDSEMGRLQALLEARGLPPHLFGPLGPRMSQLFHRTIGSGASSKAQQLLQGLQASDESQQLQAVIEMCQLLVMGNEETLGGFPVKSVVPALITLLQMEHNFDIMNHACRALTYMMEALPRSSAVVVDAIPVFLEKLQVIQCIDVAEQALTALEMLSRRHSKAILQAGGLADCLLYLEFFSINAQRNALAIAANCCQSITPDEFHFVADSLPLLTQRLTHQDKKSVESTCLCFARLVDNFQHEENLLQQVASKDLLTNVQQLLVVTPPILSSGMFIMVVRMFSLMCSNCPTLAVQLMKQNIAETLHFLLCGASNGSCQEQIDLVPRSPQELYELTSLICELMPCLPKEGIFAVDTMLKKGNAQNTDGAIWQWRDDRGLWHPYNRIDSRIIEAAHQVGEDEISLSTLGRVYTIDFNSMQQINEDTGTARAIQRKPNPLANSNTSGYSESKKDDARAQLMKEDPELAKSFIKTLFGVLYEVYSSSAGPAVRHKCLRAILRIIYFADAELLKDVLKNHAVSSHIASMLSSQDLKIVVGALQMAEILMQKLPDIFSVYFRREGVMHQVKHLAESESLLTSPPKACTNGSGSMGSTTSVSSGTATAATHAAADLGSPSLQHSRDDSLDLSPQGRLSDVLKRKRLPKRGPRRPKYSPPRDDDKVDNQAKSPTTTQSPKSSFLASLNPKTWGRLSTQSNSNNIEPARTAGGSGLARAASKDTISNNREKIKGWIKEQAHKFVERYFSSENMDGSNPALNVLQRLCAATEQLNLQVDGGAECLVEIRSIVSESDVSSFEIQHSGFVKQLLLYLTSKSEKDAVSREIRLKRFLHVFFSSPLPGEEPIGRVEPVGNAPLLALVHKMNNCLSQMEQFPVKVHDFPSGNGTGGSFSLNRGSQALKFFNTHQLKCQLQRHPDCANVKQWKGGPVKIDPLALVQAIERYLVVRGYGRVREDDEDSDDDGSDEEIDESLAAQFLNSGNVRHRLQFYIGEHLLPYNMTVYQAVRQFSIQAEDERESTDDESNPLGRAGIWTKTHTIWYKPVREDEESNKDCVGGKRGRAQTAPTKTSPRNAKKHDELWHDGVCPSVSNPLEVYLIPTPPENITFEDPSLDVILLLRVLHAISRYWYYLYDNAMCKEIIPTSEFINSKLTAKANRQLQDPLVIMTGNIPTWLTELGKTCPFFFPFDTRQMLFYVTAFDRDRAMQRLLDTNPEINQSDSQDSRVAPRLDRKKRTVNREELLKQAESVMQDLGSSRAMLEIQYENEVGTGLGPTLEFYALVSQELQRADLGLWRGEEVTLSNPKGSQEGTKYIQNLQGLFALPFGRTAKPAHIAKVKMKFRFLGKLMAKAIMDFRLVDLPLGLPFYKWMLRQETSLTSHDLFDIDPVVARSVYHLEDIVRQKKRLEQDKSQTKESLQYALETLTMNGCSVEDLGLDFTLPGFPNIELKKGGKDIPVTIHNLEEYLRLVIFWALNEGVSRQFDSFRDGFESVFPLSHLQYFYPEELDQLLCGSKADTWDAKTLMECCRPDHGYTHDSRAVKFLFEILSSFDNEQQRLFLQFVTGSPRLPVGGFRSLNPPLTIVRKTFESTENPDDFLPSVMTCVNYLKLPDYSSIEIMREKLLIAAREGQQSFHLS
UniProt O95271: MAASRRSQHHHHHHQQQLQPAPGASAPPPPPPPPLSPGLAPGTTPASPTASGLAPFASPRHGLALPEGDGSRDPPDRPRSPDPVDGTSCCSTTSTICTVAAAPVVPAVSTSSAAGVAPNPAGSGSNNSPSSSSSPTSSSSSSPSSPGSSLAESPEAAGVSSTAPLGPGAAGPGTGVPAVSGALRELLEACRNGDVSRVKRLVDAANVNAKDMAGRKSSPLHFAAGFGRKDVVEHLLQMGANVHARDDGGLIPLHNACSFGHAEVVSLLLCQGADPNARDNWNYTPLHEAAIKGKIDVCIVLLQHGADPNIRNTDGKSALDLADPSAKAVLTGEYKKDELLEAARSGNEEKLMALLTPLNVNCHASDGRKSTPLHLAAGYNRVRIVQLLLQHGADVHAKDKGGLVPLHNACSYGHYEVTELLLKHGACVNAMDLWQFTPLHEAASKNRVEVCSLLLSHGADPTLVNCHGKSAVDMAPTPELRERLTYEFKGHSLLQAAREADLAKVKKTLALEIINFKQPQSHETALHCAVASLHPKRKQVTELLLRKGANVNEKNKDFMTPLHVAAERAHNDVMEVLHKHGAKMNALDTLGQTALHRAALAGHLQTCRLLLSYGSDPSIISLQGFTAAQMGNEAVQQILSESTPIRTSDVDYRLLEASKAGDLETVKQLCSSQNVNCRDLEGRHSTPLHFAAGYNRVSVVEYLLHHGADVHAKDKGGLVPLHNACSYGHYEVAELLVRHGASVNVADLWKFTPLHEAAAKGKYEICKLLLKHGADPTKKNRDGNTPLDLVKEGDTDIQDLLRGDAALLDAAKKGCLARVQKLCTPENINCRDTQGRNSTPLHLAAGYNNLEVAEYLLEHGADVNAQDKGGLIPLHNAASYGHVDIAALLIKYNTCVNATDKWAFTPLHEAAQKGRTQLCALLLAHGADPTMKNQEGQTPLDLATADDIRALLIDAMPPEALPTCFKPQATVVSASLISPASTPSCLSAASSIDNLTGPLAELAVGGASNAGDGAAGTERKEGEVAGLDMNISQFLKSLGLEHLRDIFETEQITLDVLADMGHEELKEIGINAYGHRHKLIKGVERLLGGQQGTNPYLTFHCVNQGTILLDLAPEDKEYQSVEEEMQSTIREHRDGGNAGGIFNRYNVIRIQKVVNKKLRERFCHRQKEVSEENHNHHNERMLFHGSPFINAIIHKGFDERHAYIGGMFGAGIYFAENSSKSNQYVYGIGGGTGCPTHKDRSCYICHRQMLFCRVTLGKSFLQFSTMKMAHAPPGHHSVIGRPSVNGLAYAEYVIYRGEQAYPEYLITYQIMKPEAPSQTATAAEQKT

What was measured:
[1] = biological target: FlagBAP (bacterial alkaline phosphatase) [phosphatase: P00634]; experiment: co-IP; TNKS1/2 DKO HEK293T cells cotransfected with TNKS1 (or MycSAMPARP) and Flag plasmids; TNE lysate; anti-Flag beads 2 h at 4 °C; immunoblot
[2] = biological target: FlagRNF166 C2HC mutant (C98G; C*) (UniProt Q96A37); experiment: as above
[3] = biological target: T1, Flag-tagged CHFR (FlagCHFR) (UniProt Q96EP1); experiment: as above
T1 sequence: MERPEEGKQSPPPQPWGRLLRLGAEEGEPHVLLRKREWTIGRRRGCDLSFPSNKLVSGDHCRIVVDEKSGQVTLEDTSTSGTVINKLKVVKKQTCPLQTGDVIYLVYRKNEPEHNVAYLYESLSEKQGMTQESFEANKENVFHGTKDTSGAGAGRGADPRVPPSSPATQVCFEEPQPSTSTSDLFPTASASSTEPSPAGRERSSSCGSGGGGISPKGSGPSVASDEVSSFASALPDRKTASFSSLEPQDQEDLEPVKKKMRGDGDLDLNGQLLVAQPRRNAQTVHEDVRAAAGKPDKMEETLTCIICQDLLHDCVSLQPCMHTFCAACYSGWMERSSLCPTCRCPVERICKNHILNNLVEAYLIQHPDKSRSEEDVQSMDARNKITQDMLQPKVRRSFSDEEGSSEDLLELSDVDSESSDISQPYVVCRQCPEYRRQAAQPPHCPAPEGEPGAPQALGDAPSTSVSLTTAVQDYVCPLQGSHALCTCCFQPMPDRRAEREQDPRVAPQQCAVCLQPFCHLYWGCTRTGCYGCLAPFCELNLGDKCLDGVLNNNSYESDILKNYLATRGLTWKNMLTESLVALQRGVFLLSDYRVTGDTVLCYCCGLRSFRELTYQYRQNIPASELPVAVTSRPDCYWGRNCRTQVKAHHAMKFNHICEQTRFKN

[4] = biological target: Flag-epitope-tagged RNF166 (FlagRNF166) (UniProt Q96A37); experiment: as above
[5] = biological target: Flag-tagged TRIP12 (pcDNA3.1-Flag-TRIP12-WT) (UniProt Q14669); experiment: as above
Flag-tagged RNF125 = biological target: T2, Flag-tagged RNF125 (UniProt Q96EQ8); experiment: as above
T2 sequence: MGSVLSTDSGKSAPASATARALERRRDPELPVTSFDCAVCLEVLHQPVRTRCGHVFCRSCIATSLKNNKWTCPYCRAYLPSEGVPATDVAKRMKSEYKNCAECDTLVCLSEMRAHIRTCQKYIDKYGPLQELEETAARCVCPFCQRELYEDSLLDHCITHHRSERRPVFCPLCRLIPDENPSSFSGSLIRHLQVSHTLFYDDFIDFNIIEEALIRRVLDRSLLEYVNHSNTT

Flag-tagged DTX1 = biological target: T3, Flag-tagged DTX1 (UniProt Q86Y01); experiment: as above
T3 sequence: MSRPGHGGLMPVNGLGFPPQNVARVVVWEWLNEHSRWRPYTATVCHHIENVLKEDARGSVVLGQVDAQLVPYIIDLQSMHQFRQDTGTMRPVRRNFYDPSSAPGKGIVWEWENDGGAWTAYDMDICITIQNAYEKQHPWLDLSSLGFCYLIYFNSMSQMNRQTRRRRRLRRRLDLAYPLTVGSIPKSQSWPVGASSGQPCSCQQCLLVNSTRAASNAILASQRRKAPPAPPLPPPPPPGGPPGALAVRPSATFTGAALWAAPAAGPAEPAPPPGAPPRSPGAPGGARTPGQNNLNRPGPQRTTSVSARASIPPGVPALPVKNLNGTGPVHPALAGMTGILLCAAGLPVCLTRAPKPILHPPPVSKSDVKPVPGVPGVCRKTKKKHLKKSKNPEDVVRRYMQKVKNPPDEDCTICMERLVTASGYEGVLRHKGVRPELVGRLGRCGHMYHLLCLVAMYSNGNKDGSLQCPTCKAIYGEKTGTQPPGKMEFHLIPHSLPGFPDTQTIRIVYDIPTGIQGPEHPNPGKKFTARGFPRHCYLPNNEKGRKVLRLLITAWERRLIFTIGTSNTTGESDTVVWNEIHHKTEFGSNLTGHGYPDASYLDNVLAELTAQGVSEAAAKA

[6] = biological target: Flag-epitope-tagged RNF166 (FlagRNF166) (UniProt Q96A37); experiment: co-IP; Supplementary Fig. 1C: cells transfected with TNKS1 WT or CD and the E3 ligases; immunoprecipitates probed for TNKS1 and endogenous PARP1 (legend not shown)

TNKS1 (transfected, TNKS.WT) (from UniProt O95271 1-1327) (enzyme)
binding [1]: no binding | binding [2]: binds | binding [3]: binds | binding [4]: binds | binding [5]: no binding | binding (Flag-tagged RNF125): binds | binding (Flag-tagged DTX1): binds | binding [6]: binds
